Target: T1, Recombinant rat tail Type 1 Collagen (rat, UniProt P02454 152-1207; P02466 86-1125)
T1 construct: collagen alpha-1(I) chain, rat (rat tail type 1 collagen); collagen alpha-2(I) chain, rat (rat tail type 1 collagen); rat tail collagen is commonly extracted from tissue; also called Collagen 1; collagen I; source: bought: Bbiosciences (1 mg/ml)
Assay: SPR; BIAcore T200; type 1 collagen immobilised on a CM5 chip by amine coupling (2622 RU), 25 °C; rTRIP-1 as analyte, 0–200 μg at 2-fold dilution, 20 μL/min, PBS-P (0.5% Surfactant P20) pH 7.4; steady state analysis; apparent
Conditions: both partners purified

T1 sequence (P02454 152-1207, chain 1 of 2): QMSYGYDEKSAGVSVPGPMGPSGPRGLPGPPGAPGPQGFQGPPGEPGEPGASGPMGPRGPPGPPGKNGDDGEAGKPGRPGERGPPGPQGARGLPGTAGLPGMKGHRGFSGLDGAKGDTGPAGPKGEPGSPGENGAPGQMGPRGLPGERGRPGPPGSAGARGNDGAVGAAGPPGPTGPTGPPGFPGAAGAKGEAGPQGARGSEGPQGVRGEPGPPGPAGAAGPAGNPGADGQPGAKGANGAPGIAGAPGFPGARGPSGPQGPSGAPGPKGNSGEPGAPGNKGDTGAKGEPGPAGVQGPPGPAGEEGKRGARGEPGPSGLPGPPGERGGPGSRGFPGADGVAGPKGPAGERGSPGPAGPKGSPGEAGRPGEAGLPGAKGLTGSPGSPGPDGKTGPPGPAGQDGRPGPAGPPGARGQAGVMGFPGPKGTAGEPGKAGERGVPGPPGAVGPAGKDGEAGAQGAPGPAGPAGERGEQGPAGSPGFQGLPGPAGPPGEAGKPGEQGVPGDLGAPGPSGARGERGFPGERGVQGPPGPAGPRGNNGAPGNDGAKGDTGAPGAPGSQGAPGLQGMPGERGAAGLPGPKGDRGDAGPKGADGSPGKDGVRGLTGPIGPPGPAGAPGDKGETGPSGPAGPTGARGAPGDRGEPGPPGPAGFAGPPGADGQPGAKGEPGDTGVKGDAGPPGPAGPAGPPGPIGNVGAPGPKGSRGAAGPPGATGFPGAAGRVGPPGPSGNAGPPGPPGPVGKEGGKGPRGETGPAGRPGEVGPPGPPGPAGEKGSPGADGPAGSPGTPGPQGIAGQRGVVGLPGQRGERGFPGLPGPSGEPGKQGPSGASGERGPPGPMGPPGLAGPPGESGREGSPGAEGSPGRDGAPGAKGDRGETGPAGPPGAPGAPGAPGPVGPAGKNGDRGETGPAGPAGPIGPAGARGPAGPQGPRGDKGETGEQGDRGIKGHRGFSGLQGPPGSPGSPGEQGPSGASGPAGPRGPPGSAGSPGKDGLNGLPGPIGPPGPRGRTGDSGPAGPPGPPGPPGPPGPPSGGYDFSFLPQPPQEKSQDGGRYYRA
T1 sequence (P02466 86-1125, chain 2 of 2, further chain): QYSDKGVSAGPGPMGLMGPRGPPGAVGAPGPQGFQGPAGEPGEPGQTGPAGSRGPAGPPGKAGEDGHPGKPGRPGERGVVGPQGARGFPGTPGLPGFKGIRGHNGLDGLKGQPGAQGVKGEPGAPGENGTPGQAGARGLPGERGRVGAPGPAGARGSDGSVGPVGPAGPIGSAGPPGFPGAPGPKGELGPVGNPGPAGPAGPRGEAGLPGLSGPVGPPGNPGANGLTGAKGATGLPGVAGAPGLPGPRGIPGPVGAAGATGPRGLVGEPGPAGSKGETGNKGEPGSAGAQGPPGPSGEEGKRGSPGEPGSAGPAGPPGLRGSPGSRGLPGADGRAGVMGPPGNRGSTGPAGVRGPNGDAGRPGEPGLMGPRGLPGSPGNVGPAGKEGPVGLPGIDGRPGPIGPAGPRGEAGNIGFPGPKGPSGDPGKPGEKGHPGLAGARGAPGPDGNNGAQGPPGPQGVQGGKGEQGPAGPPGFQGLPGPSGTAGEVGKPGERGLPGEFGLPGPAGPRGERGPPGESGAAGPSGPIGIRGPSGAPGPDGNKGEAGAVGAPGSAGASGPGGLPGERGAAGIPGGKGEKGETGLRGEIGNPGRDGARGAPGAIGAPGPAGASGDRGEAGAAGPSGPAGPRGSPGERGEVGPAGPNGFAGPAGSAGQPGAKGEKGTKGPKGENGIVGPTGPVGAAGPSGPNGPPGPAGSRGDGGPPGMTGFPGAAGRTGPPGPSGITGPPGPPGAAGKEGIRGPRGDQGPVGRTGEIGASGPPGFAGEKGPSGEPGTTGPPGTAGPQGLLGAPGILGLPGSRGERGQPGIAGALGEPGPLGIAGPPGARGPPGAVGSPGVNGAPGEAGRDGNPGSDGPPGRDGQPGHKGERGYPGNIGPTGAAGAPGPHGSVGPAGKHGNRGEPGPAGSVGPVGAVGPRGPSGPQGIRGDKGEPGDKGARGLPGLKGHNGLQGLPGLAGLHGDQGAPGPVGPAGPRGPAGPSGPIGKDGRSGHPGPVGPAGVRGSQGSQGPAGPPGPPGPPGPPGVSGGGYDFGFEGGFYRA

B1: Recombinant TRIP-1 (TGF beta receptor II interacting protein 1) (natural protein)
chain: not shown
notes: TRIP-1 (eIF3i, subunit i of eukaryotic initiation factor 3); 973-bp fragment corresponding to the coding region of TRIP-1 cloned into the Sph I/Sal I sites of pQE-30; also called rTRIP-1; eIF3i; source: E. coli (pQE-30 plasmid), purified (Ni-NTA Superflow, native conditions), dialyzed, lyophilized
Kd: 48.6 µM

From paper PMC5121659, “TGF beta receptor II interacting protein-1, an intracellular protein has an extracellular role as a modulator of matrix mineralization” (Scientific Reports, 2016)
